# Hit rate of the full screen: of about 310,000 compounds, about 2,200 (0.71%) showed an effect of 50% or more. Effects have a minus sign here. The list shows a part of the results.
# Molecular target: human ether-à-go-go-related gene (hERG) potassium channel (human, UniProt Q12809)
# Assay: primary screen, population patch clamp on CHO cells stably expressing hERG
# Sequence of human ether-à-go-go-related gene (hERG) potassium channel (Q12809 whole entry, looked up): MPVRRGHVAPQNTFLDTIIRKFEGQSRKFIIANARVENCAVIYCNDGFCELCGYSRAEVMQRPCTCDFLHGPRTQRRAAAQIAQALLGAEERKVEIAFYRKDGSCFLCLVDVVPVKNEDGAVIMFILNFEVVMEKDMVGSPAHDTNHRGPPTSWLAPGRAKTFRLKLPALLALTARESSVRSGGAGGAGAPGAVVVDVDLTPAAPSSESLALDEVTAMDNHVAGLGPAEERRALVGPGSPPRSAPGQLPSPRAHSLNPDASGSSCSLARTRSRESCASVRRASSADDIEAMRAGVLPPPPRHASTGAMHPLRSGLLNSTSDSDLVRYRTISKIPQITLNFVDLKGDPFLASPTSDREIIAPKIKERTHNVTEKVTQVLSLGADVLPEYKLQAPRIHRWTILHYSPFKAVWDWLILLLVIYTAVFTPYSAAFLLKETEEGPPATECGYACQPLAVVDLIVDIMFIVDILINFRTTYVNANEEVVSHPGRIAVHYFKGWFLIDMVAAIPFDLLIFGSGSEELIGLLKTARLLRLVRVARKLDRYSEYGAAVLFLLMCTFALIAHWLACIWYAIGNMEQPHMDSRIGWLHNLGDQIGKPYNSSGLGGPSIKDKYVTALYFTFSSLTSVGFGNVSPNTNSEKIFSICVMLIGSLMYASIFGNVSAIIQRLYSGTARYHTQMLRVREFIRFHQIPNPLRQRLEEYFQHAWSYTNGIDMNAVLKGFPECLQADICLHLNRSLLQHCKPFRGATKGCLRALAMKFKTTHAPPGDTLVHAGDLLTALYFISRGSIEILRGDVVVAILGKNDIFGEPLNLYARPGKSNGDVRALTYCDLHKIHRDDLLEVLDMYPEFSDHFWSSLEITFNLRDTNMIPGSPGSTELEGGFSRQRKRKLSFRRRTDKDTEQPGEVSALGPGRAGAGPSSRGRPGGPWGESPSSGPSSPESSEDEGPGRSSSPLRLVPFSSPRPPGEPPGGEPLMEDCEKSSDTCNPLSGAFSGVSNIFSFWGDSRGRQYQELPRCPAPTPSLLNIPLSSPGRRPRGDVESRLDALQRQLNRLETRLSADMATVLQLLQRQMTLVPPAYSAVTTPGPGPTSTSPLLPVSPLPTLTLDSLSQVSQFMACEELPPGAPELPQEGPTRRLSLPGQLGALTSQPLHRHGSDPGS
row,SMILES,"hERG current change (%, negative = inhibition) at 1uM"
1,COc1ccc([C@H]2CC(=O)C=C(c3cccc4c3sc3ccccc34)C2)cc1OC,6.24%
2,O=C1Nc2cc(Cl)ccc2C1(N1CCNCC1)C(F)(F)F (centres unmarked),-0.156%
3,CC(C)CCOP(=O)(c1ccccc1)c1ccccc1,4.06%
4,COc1c(/C=N/NC(=O)c2ccncc2)c(CCN(C)C(C)=O)cc2c1OCO2,14.1%
5,CCOC(=O)C1(CCCc2ccccc2)CCN(C(=O)CCCn2cncn2)CC1,-13.5%
6,COc1ccc(-c2cn3cccnc3n2)cc1NC(=O)C1CC1,2.63%
7,COc1ccc(-n2nc3c(c2NC(=O)c2ccc(Br)o2)CS(=O)(=O)C3)cc1,0.428%
8,CCCc1[nH]nc2c1C(c1cccnc1)C(C#N)=C(N)O2 (centres unmarked),12%
9,c1ccn2c(SCc3ccc4c(c3)OCCO4)nnc2c1,2%
10,O=C(/C=C/c1ccccc1Cl)c1ccc[nH]1,4.48%
11,COc1c(-c2ccc(O)cc2)oc2cc(O)cc(O)c2c1=O,7.05%
12,COc1ccc(NC(=O)c2ccccc2[N+](=O)[O-])cc1OC,7.44%
13,CCc1ccc(-n2nc3cc(C)c(N)cc3n2)cc1,13.3%
14,CCCCNC(=O)c1onc(CSc2ccc(C(C)C)cc2)c1C(=O)O,9.78%
15,O=S(NCc1ccco1)C12CC3CC(CC(C3)C1)C2 (centres unmarked),4.43%
16,COc1cccc(CNn2cnnc2)c1OCc1ccc(F)cc1,14.5%
17,COc1cc2cc(NC(C)=O)cc(NCc3ccccc3)c2cc1OC,15.4%
18,CCCn1nnc(NC(=O)c2cc(Br)cc(Br)c2OC)n1,-3.33%
19,Cc1cc(S(=O)(=O)N2CCOCC2)ccc1OCC(=O)NCc1ccccn1,5.16%
20,Cc1nc2ccccn2c1C(=O)OCC#N,8.89%
21,C=CCNC(=O)/C(C#N)=C/c1ccc(SC)cc1,-1.94%
22,Clc1ccc(-c2nnc(-c3ccco3)nc2N2CCCCC2)cc1,19.4%
23,CCCOc1ccc(C(=O)NNC(=S)NC(=O)c2ccccc2[N+](=O)[O-])cc1,13.3%

row,SMILES,"hERG current change (%, negative = inhibition) at 1uM"
1,CCCC[C@H](CN(N=O)[C@@H](Cc1ccccc1)CN(C)N=O)N(CCc1ccccc1)N=O.[Na+],20.9%
2,Cc1cc(F)c(F)cc1C(=O)N1CCCC1,13.9%
3,Fc1cccc(Cl)c1Cn1nnc(-c2ccc(N3CCOCC3)cc2)n1,14.5%
4,Cc1ccc(NC(=O)CSCC(=O)N2CCN(C(=O)c3ccco3)CC2)cc1,3.41%
5,CCCC(=O)Nc1nc(C)c(-c2csc(Nc3cc(OC)ccc3OC)n2)s1,12.4%
6,Cc1cc(C)n(/N=C/c2ccc(O)cc2)c(=O)c1C#N,11%
7,CN(C)S(=O)(=O)c1ccc(C(=O)OCC(=O)c2ccc(OC(F)F)cc2OC(F)F)cc1,1.74%
8,Cc1ccc(S(=O)(=O)N(C)C)cc1NC(=O)COC(=O)c1n[nH]c(=O)c2ccccc12,-20.1%
9,CCOC(=O)C(C(=O)Nc1ccccc1)C1CCCCC1 (centres unmarked),6.17%
10,COC(=O)C1=C(C)N(Cc2ccccc2)C(=S)N[C@H]1c1ccccc1,6.71%
11,Nc1cc(=O)[nH]c(SCC(=O)Nc2cccc(Cl)c2)n1,3.72%
12,Cc1ccc(Cl)cc1NC(=O)COc1ccccc1,14.2%
13,O=C(COC(=O)CCC(=O)c1ccccc1)Nc1nnc(-c2ccccc2)o1,11.3%
14,O=C(NC1CCC1)C1CCC(=O)N(Cc2cccc(F)c2)C1 (centres unmarked),-4.2%
15,Cc1cc(Cl)ccc1C(=O)C1CCCN(C(=O)c2cnn(C(C)C)c2)C1 (centres unmarked),5.17%
16,C/C(=N/NC(=O)c1ccc(Br)o1)c1cccc(NC(=O)c2ccc(F)cc2)c1,-25%
17,COc1ccccc1NC(=O)CSc1nnc(C2CCCCC2)n1-c1ccccc1,2.23%
18,CC(C)(C)C(=O)Nc1ccc(C(=O)Nc2cccnc2)cc1,6.36%
19,O=C(CN1CCCC1c1cccs1)N1CCN(S(=O)(=O)c2cccc(F)c2)CC1 (centres unmarked),7.94%
20,COC/C=C/C1=CC2=CC(=O)C(C)(OC(=O)c3cnc4ccccc4n3)C(=O)C2=CN1CCN1CCOCC1 (centres unmarked),14.2%
21,COc1ccc(CSCCN)cc1Cl.Cl,9.92%
22,CN(C)N=C1c2cc(S(=O)(=O)N3CCOCC3)ccc2-c2ccc(S(=O)(=O)N3CCOCC3)cc21,7.08%
23,Cc1ccc(S(=O)(=O)N2CCN(C(=O)CCC(=O)N3CCc4ccccc43)CC2)cc1,3.11%

row,SMILES,"hERG current change (%, negative = inhibition) at 1uM"
1,CN1CCN(/N=C/c2ccc(OCc3ccccc3)cc2)CC1,6.26%
2,COc1ccc2cc(CCOC3CCCCO3)ncc2c1 (centres unmarked),14.6%
3,CCCCCc1nc2c(c(=O)c3ccccc3n2C)c(=O)n1Cc1ccc(OC)cc1,10.9%
4,CCCCn1c(CN2CCN(c3cccc(Cl)c3)CC2)nc2c1c(=O)n(C)c(=O)n2C,-13.7%
5,Oc1ccc(CNCC2COc3ccccc3O2)cc1 (centres unmarked),11.7%
6,CCCCn1c(SCC(=O)N2CCCC2=O)nc2cc(S(N)(=O)=O)ccc21,2.33%
7,COc1ccc(NC(=O)c2cc(-c3ccc(C)o3)nc3ccccc23)cc1,17%
8,CC(C)c1nc2sc3c(c2c(=O)n1N)CC(C)(C)OC3,13.5%
9,COc1ccc(NC(=S)N2CCc3ccccc32)cc1OC,35.8%
10,Nn1c(Cc2cccc3ccccc23)nnc1SCc1c(Cl)cccc1Cl,14.5%
11,N#CCC(=O)NCCCOC(=O)Nc1ccc(Cl)c(Cl)c1,6.85%
12,Cc1ccccc1NC(=O)c1ccco1,13.1%
13,O=C(c1ccc(Cl)c(Cl)c1)N1CCC(=O)N(C(CO)Cc2ccccc2)CC1 (centres unmarked),18%
14,CC(C)OC(=O)/C(=C\c1ccc2c(c1)c1ccccc1n2C)NC(=O)c1ccccc1,12.7%
15,CCOC(=O)C1CCN(S(=O)(=O)c2ccc3c(c2)CC(C)N3C(=O)C2CC2)CC1 (centres unmarked),11.7%
16,Cc1ccc(NC(=O)C[n+]2cc(-c3ccccc3)n3c2CCC3)c(C)c1.[Cl-],5.45%
17,CC(=O)Nc1ccc(S(=O)(=O)NCCC(=O)N2CCC(Cc3ccccc3)CC2)cc1,-2.9%
18,Cc1cc(C)nc(SCC(=O)N/N=C/c2cccn2-c2cccc(C(F)(F)F)c2)n1,-5.16%
19,N#Cc1ccc(-c2nc3ccc(Br)cc3c(=O)n2O)cc1,13.7%
20,O=C(Nc1ccc(N2CCOCC2)c(Cl)c1)c1ccc(-n2cnnc2)cc1Cl,7.34%
21,Cc1cc(N2CCOCC2)n2ncc(-c3ccc(Cl)cc3)c2n1,14.8%
22,Clc1ccc2c(NCc3ccccn3)ccnc2c1,-8.88%
23,CCOc1ccc(NC(=O)N(CCN2CCOCC2)Cc2ccc3c(c2)CCCN3CC)cc1,2.35%

row,SMILES,"hERG current change (%, negative = inhibition) at 1uM"
1,Cc1cc(S(=O)(=O)n2[nH]c(=O)c(CCO)c2C)c(Cl)cc1Cl,14.1%
2,CC1=CC(C)(C)[N+](C)=CN1c1ccccc1.[I-],3.93%
3,Cc1nnc(NC(=O)c2cc3ccccc3o2)s1,2.11%
4,C[C@@]12C(=O)N(c3ccc(C(F)(F)F)cc3)C(=O)N1[C@@H]1c3ccccc3OC[C@@H]1[C@H]2c1ccccc1,18.5%
5,CCC(=O)N1c2ccc(S(=O)(=O)NCCc3ccc(OC)c(OC)c3)cc2CC1C (centres unmarked),8.31%
6,CC(C)Cc1c(O)nc(SCC(=O)Nc2ccc3c(c2)CCC3)[nH]c1=O,8.07%
7,CCn1cc(CCC(=O)NCCN2CCOCC2)c2ccccc21,18.8%
8,CCOc1cc(C=O)ccc1OCc1cc(=O)n2cc(C)ccc2n1,9.17%
9,CCn1c(SCC(=O)c2ccc(O)c(O)c2)nnc1-c1ccccc1,1.18%
10,Cn1c(=O)c2c(nc(CN3CCC(C(N)=O)CC3)n2CCCc2ccccc2)n(C)c1=O,10%
11,CCC(=O)c1ccccc1OCC(=O)Nc1c(C)cccc1C,8.24%
12,CCOc1cc(/C=N/NC(=O)Nc2ccccc2)ccc1O,2.04%
13,CCN(CC)CCOC(=O)c1cccc(OC)c1.Cl,1.64%
14,Cc1cccc(-c2nnc3n2N=C(c2ccccc2)CS3)c1,12.1%
15,O=C(NCc1ccco1)C(c1ccco1)N(CCc1ccccc1)C(=O)Cn1nnc2ccccc21 (centres unmarked),0.882%
16,COc1cccc(/C=C2\SC(=O)N(CCC(=O)NCCCn3ccnc3)C2=O)c1,12.6%
17,NS(=O)(=O)c1ccc(CCNC(=O)COc2ccc3c4c(c(=O)oc3c2)CCC4)cc1,10.5%
18,Cc1nc(CSc2n[nH]c(=O)n2-c2cccc(F)c2)cs1,17.6%
19,COc1ccc(N2CCN(c3ccc(NC(=O)/C=C\C(=O)O)cc3)CC2)cc1,7.83%
20,CC(NC(=O)c1ccccc1F)C12CC3CC(CC(C3)C1)C2 (centres unmarked),12.5%

# Source: PMC4336329 (PLoS ONE, 2015)
